Sequences and labels used below:
B1: TEV protease; numbered along this chain (parent)
chain: MGESLFKGPRDYNPISSSICHLTNESDGHTTSLYGIGFGPFIITNKHLFRRNNGTLVVQSLHGVFKVKDTTTLQQHLVDGRDMIIIRMPKDFPPFPQKLKFREPQREERICLVTTNFQTKSMSSMVSDTSCTFPSGDGIFWKHWIQTKDGQCGSPLVSTRDGFIVGIHSASNFTNTNNYFTSVPKNFMELLTNQEAQQWVSGWRLNADSVLWGGHKVFMVKPEEPFQPVKEATQL

This assay covers variants of B1. The assay can be described thus: raw area under fraction-flipped curve 0-4 h after induction (AUC4h, not background-subtracted), DNA-recorder readout of cleavage of the substrate (dimensionless); higher = more cleavage of the substrate by the protease variant. To be noted: temperature: 34 °C; time window: 0-4 h after rhamnose induction.

The list shows a part of the results. The full chains were built here from the parent and the listed change. Values near 0.05 are background.
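Note: Bxb1 expression induced with 0.2% (w/v) L-rhamnose at OD600 near 0.5, cultures sampled hourly, flipped fraction per protease–substrate barcode pair counted by paired-end Illumina sequencing.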

For MGESLFKGPRDYNPISSSICHLTNESDGHTTSLYGIGFGPFIITNKHLFRRNNGTLVVQSLHGVFKVKDTTTLQQHLVDGRDMIIIRMPKDFPPFPQKLKFREPQREERICLVTTNFQTKSMSSMVSDTSCTFPSGDGIFWKHWIQTKDGQCGSPLVSTRDGFIVGIHSASNFTNTNNYFTSVPKNFMELLTNQEAQQWVSGWRLNADSVLWGGHKVFMVKPEEPFQPFKEATQL [V229F], the “area with substrate CNLYFQS” value came to 0.0648, the “area with substrate DNLYFQS” value is 0.0653, the “area with substrate FNLYFQS” value is 0.0462 and the “area with substrate GNLYFQS” value came to 0.0556. The “area with substrate HNLYFQS” value came out at 0.061, the “area with substrate INLYFQS” value came to 0.0559, the “area with substrate LNLYFQS” value turned out to be 0.0615 and the “area with substrate NNLYFQS” value was 0.0493. Also, the “area with substrate PNLYFQS” value was determined as 0.0643, the “area with substrate RNLYFQS” value stood at 0.0532, the “area with substrate SNLYFQS” value was 0.0639 and the “area with substrate TNLYFQS” value worked out at 0.062. Besides, the “area with substrate VNLYFQS” value is 0.0419, the “area with substrate WNLYFQS” value stood at 0.0595 and the “area with substrate YNLYFQS” value was determined as 0.0652.

Regarding MGESLFKGPRDYNPISSSICHLTNESDGHTTSLYGIGFGPFIITNKHLFRRNNGTLVVQSLHGVFKVKDTTTLQQHLVDGRDMIIIRMPKDFPPFPQKLKFREPQREERICLVTTNFQTKSMSSMVSDTSCTFPSGDGIFWKHWIQTKDGQCGSPLVSTRDGFIVGIHSASNFTNTNNYFTSVPKNFMELLTNQEAQQWVSGWRLNADSVLWGGHKVFMVKPEEPFQPCKEATQL [V229C], the “area with substrate CNLYFQS” value is 0.0381, the “area with substrate DNLYFQS” value amounted to 0.106, the “area with substrate FNLYFQS” value turned out to be 0.0505 and the “area with substrate GNLYFQS” value is 0.0706. In addition, the “area with substrate HNLYFQS” value came out at 0.0575, the “area with substrate INLYFQS” value was found to be 0.0677, the “area with substrate KNLYFQS” value is 0.0631 and the “area with substrate LNLYFQS” value worked out at 0.0564. For the same variant, the “area with substrate MNLYFQS” value turned out to be 0.0726, the “area with substrate NNLYFQS” value turned out to be 0.0669, the “area with substrate PNLYFQS” value was determined as 0.0702 and the “area with substrate RNLYFQS” value was 0.0542. For the same variant, the “area with substrate TNLYFQS” value was 0.0635, the “area with substrate VNLYFQS” value worked out at 0.0519, the “area with substrate WNLYFQS” value worked out at 0.0545 and the “area with substrate YNLYFQS” value was found to be 0.0539.

For MGESLFKGPRDYNPISSSICHLTNESDGHTTSLYGIGFGPFIITNKHLFRRNNGTLVVQSLHGVFKVKDTTTLQQHLVDGRDMIIIRMPKDFPPFPQKLKFREPQREERICLVTTNFQTKSMSSMVSDTSCTFPSGDGIFWKHWIQTKDGQCGSPLVSTRDGFIVGIHSASNFTNTNNYFTSVPKNFMELLTNQEAQQWVSGWRLNADSVLWGGHKVFMVKPEEPFQPVDEATQL [K230D], the “area with substrate CNLYFQS” value is 0.0558, the “area with substrate DNLYFQS” value was 0.0721, the “area with substrate FNLYFQS” value is 0.0608 and the “area with substrate GNLYFQS” value was found to be 0.0677. Moreover, the “area with substrate HNLYFQS” value was determined as 0.0729, the “area with substrate KNLYFQS” value worked out at 0.0747, the “area with substrate LNLYFQS” value is 0.0831 and the “area with substrate MNLYFQS” value was 0.0708. Moreover, the “area with substrate NNLYFQS” value is 0.071, the “area with substrate PNLYFQS” value worked out at 0.0626, the “area with substrate QNLYFQS” value is 0.0705 and the “area with substrate SNLYFQS” value was found to be 0.0705. Besides, the “area with substrate TNLYFQS” value amounted to 0.113, the “area with substrate VNLYFQS” value was 0.0643, the “area with substrate WNLYFQS” value stood at 0.0587 and the “area with substrate YNLYFQS” value was 0.0594.

For the variant MGESLFKGPRDYNPISSSICHLTNESDGHTTSLYGIGFGPFIITNKHLFRRNNGTLVVQSLHGVFKVKDTTTLQQHLVDGRDMIIIRMPKDFPPFPQKLKFREPQREERICLVTTNFQTKSMSSMVSDTSCTFPSGDGIFWKHWIQTKDGQCGSPLVSTRDGFIVGIHSASNFTNTNNYFTSVPKNFMELLTNQEAQQWVSGWRLNADSVLWGGHKVFMVKPEEPFQPVNEATQL [K230N], the “area with substrate CNLYFQS” value was 0.0534, the “area with substrate DNLYFQS” value came out at 0.077, the “area with substrate FNLYFQS” value is 0.0645 and the “area with substrate HNLYFQS” value came out at 0.053. The “area with substrate INLYFQS” value amounted to 0.0443, the “area with substrate KNLYFQS” value was 0.0684, the “area with substrate MNLYFQS” value came to 0.0284 and the “area with substrate NNLYFQS” value amounted to 0.0602. Besides, the “area with substrate PNLYFQS” value was 0.078, the “area with substrate QNLYFQS” value was 0.0661, the “area with substrate SNLYFQS” value is 0.0708 and the “area with substrate TNLYFQS” value was determined as 0.0945. In addition, the “area with substrate VNLYFQS” value amounted to 0.0642 and the “area with substrate WNLYFQS” value was 0.0562.

MGESLFKGPRDYNPISSSICHLTNESDGHTTSLYGIGFGPFIITNKHLFRRNNGTLVVQSLHGVFKVKDTTTLQQHLVDGRDMIIIRMPKDFPPFPQKLKFREPQREERICLVTTNFQTKSMSSMVSDTSCTFPSGDGIFWKHWIQTKDGQCGSPLVSTRDGFIVGIHSASNFTNTNNYFTSVPKNFMELLTNQEAQQWVSGWRLNADSVLWGGHKVFMVKPEEPFQPVCEATQL [K230C]: the “area with substrate CNLYFQS” value was 0.0686, the “area with substrate DNLYFQS” value was 0.0831, the “area with substrate HNLYFQS” value amounted to 0.0702 and the “area with substrate INLYFQS” value amounted to 0.0552. In addition, the “area with substrate LNLYFQS” value was found to be 0.0621, the “area with substrate MNLYFQS” value was determined as 0.0731, the “area with substrate PNLYFQS” value was 0.0693 and the “area with substrate SNLYFQS” value was 0.0719. For the same variant, the “area with substrate TNLYFQS” value came out at 0.0709, the “area with substrate WNLYFQS” value came out at 0.053 and the “area with substrate YNLYFQS” value was 0.052.

In the case of MGESLFKGPRDYNPISSSICHLTNESDGHTTSLYGIGFGPFIITNKHLFRRNNGTLVVQSLHGVFKVKDTTTLQQHLVDGRDMIIIRMPKDFPPFPQKLKFREPQREERICLVTTNFQTKSMSSMVSDTSCTFPSGDGIFWKHWIQTKDGQCGSPLVSTRDGFIVGIHSASNFTNTNNYFTSVPKNFMELLTNQEAQQWVSGWRLNADSVLWGGHKVFMVKPEEPFQPVKCATQL [E231C], the “area with substrate CNLYFQS” value was 0.0731, the “area with substrate DNLYFQS” value stood at 0.0658, the “area with substrate FNLYFQS” value came out at 0.0463 and the “area with substrate GNLYFQS” value came to 0.0662. The “area with substrate INLYFQS” value came out at 0.049, the “area with substrate KNLYFQS” value came to 0.0669, the “area with substrate LNLYFQS” value stood at 0.0718 and the “area with substrate MNLYFQS” value was 0.0658. In addition, the “area with substrate PNLYFQS” value is 0.0718, the “area with substrate SNLYFQS” value came out at 0.0609, the “area with substrate TNLYFQS” value was 0.0632 and the “area with substrate WNLYFQS” value was found to be 0.0636. Also, the “area with substrate YNLYFQS” value stood at 0.062.

With MGESLFKGPRDYNPISSSICHLTNESDGHTTSLYGIGFGPFIITNKHLFRRNNGTLVVQSLHGVFKVKDTTTLQQHLVDGRDMIIIRMPKDFPPFPQKLKFREPQREERICLVTTNFQTKSMSSMVSDTSCTFPSGDGIFWKHWIQTKDGQCGSPLVSTRDGFIVGIHSASNFTNTNNYFTSVPKNFMELLTNQEAQQWVSGWRLNADSVLWGGHKVFMVKPEEPFQPVKEATWL [Q234W], the “area with substrate CNLYFQS” value amounted to 0.0747, the “area with substrate DNLYFQS” value is 0.0973, the “area with substrate GNLYFQS” value is 0.068 and the “area with substrate HNLYFQS” value is 0.09. For the same variant, the “area with substrate INLYFQS” value came to 0.0703, the “area with substrate LNLYFQS” value is 0.0754, the “area with substrate NNLYFQS” value amounted to 0.0673 and the “area with substrate PNLYFQS” value is 0.0697. Also, the “area with substrate RNLYFQS” value came out at 0.0472, the “area with substrate SNLYFQS” value was 0.063, the “area with substrate TNLYFQS” value turned out to be 0.0549 and the “area with substrate VNLYFQS” value amounted to 0.0651. In addition, the “area with substrate WNLYFQS” value was found to be 0.0601 and the “area with substrate YNLYFQS” value was found to be 0.0567.

With MGESLFKGPRDYNPISSSICHLTNESDGHTTSLYGIGFGPFIITNKHLFRRNNGTLVVQSLHGVFKVKDTTTLQQHLVDGRDMIIIRMPKDFPPFPQKLKFREPQREERICLVTTNFQTKSMSSMVSDTSCTFPSGDGIFWKHWIQTKDGQCGSPLVSTRDGFIVGIHSASNFTNTNNYFTSVPKNFMELLTNQEAQQWVSGWRLNADSVLWGGHKVFMVKPEEPFQPVKEATNL [Q234N], the “area with substrate CNLYFQS” value is 0.0553, the “area with substrate DNLYFQS” value is 0.0724, the “area with substrate GNLYFQS” value amounted to 0.069 and the “area with substrate HNLYFQS” value was 0.0644. Also, the “area with substrate INLYFQS” value came to 0.0646, the “area with substrate KNLYFQS” value was 0.0593, the “area with substrate LNLYFQS” value was 0.0971 and the “area with substrate MNLYFQS” value is 0.0644. Moreover, the “area with substrate NNLYFQS” value worked out at 0.0578, the “area with substrate PNLYFQS” value was 0.0793, the “area with substrate RNLYFQS” value is 0.0741 and the “area with substrate SNLYFQS” value was determined as 0.0649. The “area with substrate TNLYFQS” value turned out to be 0.0751, the “area with substrate WNLYFQS” value came to 0.0647 and the “area with substrate YNLYFQS” value was 0.0699.

The values above are taken from the supplement of paper PMC12217912.
